The molecules below were run against PRMT5/MEP50 Complex (Homo sapiens (Human), UniProt O14744) (assay: PRMT5 inhibition based on TR-FRET assay). Conditions: 32 nM PRMT5:MEP50, 50 nM Histone-H4 peptide, 1 μM SAM.
Format: biochemical
Text: PRMT5 Inhibition Based on TR-FRET Assay:
Protein arginine methyltransferase 5 (PRMT5) is a type II arginine methyltransferase that catalyze mono- and symmetric demethylation on arginine residues of histone or non-histone proteins in presence of S-adenosylmethionine (AdoMet or SAM) a cofactor responsible for donating the methyl group. PRMT5 is reported to be overexpressed in several human cancers. To identify compounds that inhibit the PRMT5 and decrease its activity, a TR-FRET based assay has been established. Time-resolved fluorescence resonance energy transfer (TR-FRET) HTS assays are homogeneous proximity assays where the interaction of two dye-labeled binding partners is detected by the energy transfer between a donor and an acceptor dye and the subsequent light emission by the acceptor dye. PRMT5 catalyzes Histone H4 peptide which is biotin tagged to the Lysine amino acid at carboxyl end, in presence of S-adenosyl-1-methionine (SAM) to methylate the peptide. The antibody specific to mono methylated H4 peptide (H4R3) with Ig conjugate binds to the methylated peptide, indirectly binding to the Europium lanthanide. SureLight Allophycocyanin-Streptavidin binds to the biotin tag of the peptide, therefore accepting the energy transferred from the Europium lanthanide. This energy transfer between Europium to SureLight Allophycocyanin is a direct measure of the activity/inhibition of the PRMT5 enzyme.
Assay buffer: 20 mM BICINE (pH 7.6), 25 mM NaCl, 2 mM DTT, 0.01% Tween-20 and 0.01% BSA.
The compound dilutions were prepared as 7.5% DMSO stock solutions in assay buffer. To 2 μL (7.5×) of test compound, 5 μL of PRMT5 enzyme prepared in assay buffer (Final concentration of 32 nM in 15 μL reaction volume) was added and allowed for 30 minutes pre-incubation time in a white polystyrene 384-well plate at room temperature. […] The plates were then read on Victor-3 with Excitation at 340 nm and Emissions collected at 615 and 665 nm in TR-FRET protocol. […]

Sequence of UniProt O14744 (O14744 whole entry): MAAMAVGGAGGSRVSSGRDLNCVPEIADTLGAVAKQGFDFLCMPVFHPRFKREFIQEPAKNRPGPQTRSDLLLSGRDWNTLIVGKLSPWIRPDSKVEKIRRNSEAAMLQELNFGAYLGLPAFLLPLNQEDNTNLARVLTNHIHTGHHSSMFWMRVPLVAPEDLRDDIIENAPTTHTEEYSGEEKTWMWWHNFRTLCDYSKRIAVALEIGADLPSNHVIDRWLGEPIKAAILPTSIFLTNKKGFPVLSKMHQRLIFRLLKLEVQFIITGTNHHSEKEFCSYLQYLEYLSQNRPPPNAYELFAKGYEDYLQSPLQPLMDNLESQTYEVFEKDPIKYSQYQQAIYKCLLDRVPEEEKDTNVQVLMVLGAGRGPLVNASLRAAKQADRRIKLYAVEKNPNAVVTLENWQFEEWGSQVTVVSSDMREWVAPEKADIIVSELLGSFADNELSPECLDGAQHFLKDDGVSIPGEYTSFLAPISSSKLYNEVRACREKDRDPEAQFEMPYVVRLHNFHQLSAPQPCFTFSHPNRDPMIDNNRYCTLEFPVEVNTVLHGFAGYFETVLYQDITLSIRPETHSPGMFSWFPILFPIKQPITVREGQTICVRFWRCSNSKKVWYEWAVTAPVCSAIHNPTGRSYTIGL
Sequence of UniProt O14744 (Q9BQA1 whole entry partner): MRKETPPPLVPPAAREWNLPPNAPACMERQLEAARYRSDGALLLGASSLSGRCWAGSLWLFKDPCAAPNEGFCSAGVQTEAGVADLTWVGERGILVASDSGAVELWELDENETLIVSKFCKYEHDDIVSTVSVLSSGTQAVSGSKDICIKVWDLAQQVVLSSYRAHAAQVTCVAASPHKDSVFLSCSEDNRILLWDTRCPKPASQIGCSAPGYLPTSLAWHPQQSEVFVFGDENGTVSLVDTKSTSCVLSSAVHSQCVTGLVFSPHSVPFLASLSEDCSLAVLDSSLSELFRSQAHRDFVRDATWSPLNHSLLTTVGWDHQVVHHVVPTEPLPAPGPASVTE

| SMILES | IC50 |
| --- | --- |
| COc1cc(CN2C(=O)N(CC(O)CN3CCc4ccccc4C3)C(C)(C)C2=O)ccc1C#N (stereo not drawn) [Example 75, 4-((3-(3-(3,4-Dihydroisoquinolin-2(1H)-yl)-2-hydroxypropyl)-4,4-dimethyl-2,5-dioxoimidazolidin-1-yl)methyl)-2-methoxybenzonitrile] | 0.34 µM |
| O=C(c1ccnc(CN2CCN(C[C@H](O)CN3CCc4ccccc4C3)C2=O)c1)N1CCCCC1 [Example 59, (R)-1-(3-(3,4-dihydroisoquinolin-2(1H)-yl)-2-hydroxypropyl)-3-((4-(piperidine-1-carbonyl)pyridin-2-yl)methyl)imidazolidin-2-one] | 0.58 µM |
| N#Cc1ccc(CN2C(=O)CN(CC(O)CN3CCc4ccccc4C3)C2=O)nc1 (stereo not drawn) [Example 73, 6-((3-(3-(3,4-dihydroisoquinolin-2(1H)-yl)-2-hydroxypropyl)-2,5-dioxoimidazolidin-1-yl)methyl)nicotinonitrile] | 0.27 µM |

From patent US11365205B2 (Aurigene Discovery Technologies Limited, priority 2018, dated 2022)
